In the supplement of paper PMC7726561:
Whole data set: some 1,100 sequences, median “thermal melting temperature (Tm) of peptide-HLA complex” near 58, cut for the lowest 2% near 42. Some of the results follow.

target: HLA-A*02:01; experiment: thermal melting temperature (Tm) of peptide-HLA complex; higher = more thermostable pHLA complex; conditions: C1R-A*02:01
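Note: cell lysates heated 10 min at 37–73 °C, remaining pHLA pulled down with pan-class I antibody, peptides quantified by DIA-MS versus 37 °C, Tm where half the complex is lost.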

Point of comparison: ILLEKEAEL, thermal melting temperature 52.6 °C. Against it:
- KLIDGQVIQL — higher, 58.3 °C
- VLMNQPPQIAP — lower, 44.3 °C
- KLLEPSSPQFV — lower, 50.6 °C
- VLFENTDSVHL — higher, 58.5 °C
- LLLPDQPPYHL — lower, 44.1 °C
- KLDQVIIHV — higher, 60.5 °C
- SVTSEGIKAV — lower, 46 °C
- ALGPGVPHI — higher, 58 °C
- IIMLEALERV — lower, 46.6 °C
- SMLDDLRNV — higher, 60.9 °C
- KLADISINYV — higher, 62.5 °C
- KQVSDLISV — higher, 54.3 °C
- HLLSDELLL — higher, 56.8 °C
- ILDAGGHNV — higher, 55.9 °C
- GLNEEIARV — higher, 64 °C
- GLYDSQNPPTV — higher, 59.7 °C
- QLPNFAFSV — higher, 55.3 °C
- ILINDAGEVRL — higher, 56.1 °C
- FLLPHPGLQV — higher, 62.8 °C
- FLNNQEYVL — higher, 57.8 °C
- KIFDEILVNA — higher, 57.3 °C
- SILSEVQQA — higher, 53.3 °C
- ALAPGVRAV — higher, 60.2 °C
- VLMKDVQEI — lower, 44.8 °C
- FLMDFIHQV — higher, 62.2 °C
- FLDEKTHEL — higher, 56.8 °C
- FLLENSSKV — lower, 51.7 °C
- FLLPIKTVGV — higher, 63 °C
- YLQDYTDRV — higher, 55.9 °C
- FQDEINWRL — lower, 50.9 °C
- GLFSNDIPHV — higher, 62.4 °C
- QVFPGLLERV — higher, 60.8 °C
- GLDPTQFRV — higher, 57.3 °C
- FILANEHNV — lower, 40.8 °C
- FLEKLLPPV — higher, 60 °C
- ALLEPEFILKA — lower, 48.4 °C
- KLQEVGQVSV — lower, 52.3 °C
